Source: the supplement of paper PMC12632987
Over roughly 1,800 sequences, “median log2 fold change of GCK-ALFA target abundance (FLAG IP / Myc IP barcode read proportion)” has its median near 0.14; the lowest 2% begin near -0.84. The list shows a part of the results.

T1: TRAF2, Q12933
T1 chain: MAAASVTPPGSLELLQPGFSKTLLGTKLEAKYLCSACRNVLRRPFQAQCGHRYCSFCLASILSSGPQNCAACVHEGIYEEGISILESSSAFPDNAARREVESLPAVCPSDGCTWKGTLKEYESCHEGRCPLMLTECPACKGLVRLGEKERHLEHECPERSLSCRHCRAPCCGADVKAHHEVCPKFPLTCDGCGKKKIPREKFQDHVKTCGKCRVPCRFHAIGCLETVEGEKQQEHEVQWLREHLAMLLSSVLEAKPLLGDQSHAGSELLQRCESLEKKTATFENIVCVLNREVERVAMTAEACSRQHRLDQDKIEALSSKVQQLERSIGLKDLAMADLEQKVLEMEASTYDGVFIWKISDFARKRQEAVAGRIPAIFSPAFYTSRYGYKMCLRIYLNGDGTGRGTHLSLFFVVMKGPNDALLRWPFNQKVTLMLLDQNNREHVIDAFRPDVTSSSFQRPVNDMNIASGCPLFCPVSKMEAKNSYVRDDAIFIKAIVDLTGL

B1: traf2_out_17_178_1686 (protein)
chain: SKEEYRKEISEKTDELIDLTEATGAELLARARAEGRLSPEELAALEAARRRGSNRTFLALARRAVPRLASAAEAQALLDAFEAKARELEKKIAEAYKKYE
B2: traf2_out_13_95_1043 (protein)
chain: SAELAKKIMAISDQMLDEVLAALEEAAAAAADDPELVAVLREARRLAETRGISEAIHLLREAAAAHPEHAELLNALIERLEAIRRRAGREVAKLIKEEEE
B3: traf2_out_20_3_2158 (protein)
chain: SELEKKAEEALDEAIALLAEAAALADPATAARLEALRERVEASRELPPEDRLVVLSEVRREVLALAEAAAAAGRTDLAAVLAAAADALNRAMNLVYKLIE
B4: traf2_out_17_178_1682 (protein)
chain: TKEEHRKKISEYTDKLIDLTEATGAELLARARADGTISPEELAALEAARRRGSNRTFLALARRIVPKLADAAAAQALLDAFEAEARELEKKIAEEYEKYE
B5: traf2_out_20_3_2219 (protein)
chain: EELKEEIKKLLEEIRKLLKEAAPLLPAEDLAELTALLKEAEKALETDLTDALVYLSELRRRALALAQRAAAAGDAELAALLNEAAELANKAAGKVLKAIE
B6: traf2_out_5_182_2314 (protein)
chain: SAEEELRRELLERLRRVNRELARATARAMDAIEEAKARGDEEFVEEIRRLLNRAIAAVSKLEQMVLEGRIDPEEFERLLEEAERAIEELNRLIEEYEAEV
B7: traf2_out_17_178_1749 (protein)
chain: DKEELKKKINELNNEIADVADETMEKILALAEADPSVTPEALAAIRAAVKRGSANTAYALYMEASTDPAKKAEAEKIYAEARKKMNELADEMLKAIEEYK
B8: traf2_out_11_155_767 (protein)
chain: SKELEIWQELNDKVDAIVDEAYEKVKELILTDKSLTEEEKKELLDILETNRKYGLRTAFSKLIEKYKELGKEDLAKKVQEILDEAQKKMSKAAIEAEKKI
B9: traf2_out_16_62_1469 (protein)
chain: SEEKEELRKKADEKIDLAQELRDAVVAYLRGEDPEAALAKLEALAKKLGEEAKALVDALKAARADPEHREEHLAKAEELAVEIRNRLAKEALELEEKAKK
B10: traf2_out_9_17_2626 (protein)
chain: AEAEAYERETLLEAVREVTEKLLAKGYITEEQAEEIIEKTRELLEKGLPLEEVRNHVLADIASVLLWDSGLSVAEANKAVGEARKVLDAAIAEVEAARAA
B11: traf2_out_17_178_1717 (protein)
chain: SKEEYRKKISELTDKLIDLSERAARELLELAEREGTLSPEELAALREARRRGSPNDTLALGRRIAPKLRSREEAEALIRRFEEESRRLAKEIAEAYEKYE
B12: traf2_out_14_149_1250 (protein)
chain: SETEKRKEALKKAAELMKEIIEILEKALAAGSTEVDKEKLKKLLEEARKILKEQGFVLGHLLAMEEMLKTTKEWTLEDIEAFLEEARRARDSLEVLAEML
B13: traf2_out_18_147_1811 (protein)
chain: SWREAIDKMADLSEKIRELMKEIAKLTGEEEETKKLEDILTSTSVSLEEKEKAVEKAKKKYKAEGKEEAVKLLEEALELSKERLEAAKKANELINKEEAE
B14: traf2_out_17_162_1546 (protein)
chain: EELERRLRELEERLRRLEEEARRLREKLPDLPKLSKEELTDLLVEASEARREALELAEEIEELREEIGEERAEELRERARRIAEELQRIANAIYKEILKK
B15: traf2_out_11_131_658 (protein)
chain: MDAVATAESVAERVAARLALAETLSPEERHRLALQALDTIEAAAEYLREHVAEMSREDVERAVEILRAAVEAVLALDPSVAPEAEEVRRALEELERAARE
B16: traf2_out_15_48_1363 (protein)
chain: STAALQATARQVNDLFDATMREVAERLRELLPRVSPENRPLFERAIHLASVNGTIREVIALLEELAERVSPEVAAEVRELIERLRETRREASRLMSETLK
B17: traf2_out_11_169_812 (protein)
chain: EEKEKNRKINDFALELNDEAKKELLKHAKALAKKAGLDVAEVEAIFEKHKNSSLSAVAAALIAYFKSKGKEEEAAAVLAKYEELKEEINKKVTEKIKELE
B18: traf2_out_13_95_1207 (protein)
chain: EEEKTKKLREVTNEIADDLIDFVEELAEEIEKATGRAEYRDEILRTLRRYGVRAAIALIREYAKADPEHAAVYEKAAAEAEAKVREAGKEMAKKIKEIEE
B19: traf2_out_17_178_1707 (protein)
chain: TKEEARKRISEATDRMIDLAEAAAARLLALAEESGSLSPEELAALREARRLGSARTTLALMRRAIPRSPRAEEVRALVDEFEAEYRRLSAEIAAALEKYE
B20: traf2_out_17_162_1619 (protein)
chain: KSIEEILEELKRELEELEKKLKELEEKLKEIEKLSKEELTDLLVEASEARRRAREAIERIKELEGEIPEEVYEELKERFEELAERFQRIANIFYKKLEEL
B21: traf2_out_14_149_1255 (protein)
chain: SETEKKRKALEEARALMEEIAAILEAALAAGSTEVDRERLRALVEEARAILREQGFVLGHLLAIEEMLATTEEFTLADIEALLAEVRRAAESLAVLAEML
B22: traf2_out_18_3_1912 (protein)
chain: SEEERKKVSDEIDKLVDDATAKAREALARGKAEHPEFAAEFDRLEADLAAGAGPFGILEALAELFKKAGDEAAAAELEAFLAETRKKLQELVDEYEKLLK
B23: traf2_out_15_48_1370 (protein)
chain: DAAAYRAAAVAAADAIIATKDAVRDKVKELAKVASPEVKKKLDAVADLIDAGAGTRDIIAALKEAAKVASPELKKKLEALAAELEAARRAASATMAAMEK
B24: traf2_out_18_3_1936 (protein)
chain: KEEELKKVSEEIDKIVDEAEAKTREALAELKAEKPELAARAEELEALLDAGAGPFGILEAVAELYKEAGLEEKAKEIEEFLKEKRKEMQKLVDEYEKLRK
B25: traf2_out_16_104_1401 (protein)
chain: EAAKRAEFEAIIARLEAIAEELQKIANTLYKLYEKADPATRVALSDALVAASAARRAALAAAEEARRALETGGDLEAARAALAKAEADAAAVKATAAALA
B26: traf2_out_17_162_1586 (protein)
chain: AALEEELARIEEELERLEEELRRLEEKAKRIDELSKEELTDLLVEASEARRRARELLERVRRLRPRLDPETYERLATRAEELAERFQRLANIFYKELEKK
B27: traf2_out_11_169_816 (protein)
chain: EEQKKNREINDFALELNDKAKKELLEHAKKLAKEAGLDVAEVEAIFAKHKNSSLSAVAAALVEYFRSKGKEEEAAAVLAKYEELKEKINKEVTKKIKELE
B28: traf2_out_11_169_840 (protein)
chain: EEAEKNRKINDKALELNDKGKEELKKHALALAKAAGLDPAEIEKIFEENKGKSLSYIAGSLIAYFNSKGKADVAADILAKYEEIKDRINKEGTAFIKSLE
B29: traf2_out_11_155_751 (protein)
chain: EEKIKLLNEMNDKIMEIFDEARKKVDELLEKTAKEHPEHKEKIEKKKKETKNFSPKTYMLTMLELLKELGLEEEAKKVEEIIKETQKKASEIVIETEKKL

Target: T1, TRAF2, Q12933
Assay: median log2 fold change of GCK-ALFA target abundance (FLAG IP / Myc IP barcode read proportion) (log2 ratio); each designed protein is fused to an ALFA-tag nanobody in HEK293 cells to bring the named protein to FLAG-tagged glucokinase (GCK); Myc marks an untargeted standard; higher = target protein stabilised (more abundant)
Conditions: target protein: 3xFLAG-MCP-GCK-ALFA reporter; HEK293 landing pad (RPLP)
Procedure, shortened: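 HEK293 landing-pad cells received a recombined binder library fused to the ALFA nanobody and were induced with 2 μg mL^−1 doxycycline, then transfected with a plasmid encoding a FLAG-tagged target and a Myc-tagged standard. Lysates were collected after 48 h for anti-FLAG and anti-Myc immunoprecipitation, and the circular RNA barcodes were reverse transcribed, amplified and sequenced. Target abundance for each binder is the median log2 ratio of FLAG to Myc barcode read proportions. Barcodes had to reach a proportion of at least 10^−7 in both replicates, each binder needed at least 3 barcodes per replicate, a pseudocount of 10^−6 was applied, and the two replicates were pooled.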

Point of comparison: B5, “median log2 fold change” value 0.444. Against it:
- B1 — lower, 0.139
- B2 — lower, -0.166
- B3 — lower, -0.207
- B4 — lower, 0.193
- B6 — lower, 0.104
- B7 — lower, 0.0527
- B8 — lower, 0.206
- B9 — within 0.2 log units, 0.467
- B10 — lower, -0.0713
- B11 — within 0.2 log units, 0.274
- B12 — lower, 0.0577
- B13 — within 0.2 log units, 0.245
- B14 — lower, 0.213
- B15 — lower, 0.223
- B16 — lower, 0.187
- B17 — within 0.2 log units, 0.302
- B18 — lower, -0.0765
- B19 — lower, -0.126
- B20 — lower, 0.115
- B21 — lower, -0.105
- B22 — lower, 0.142
- B23 — lower, 0.205
- B24 — within 0.2 log units, 0.263
- B25 — lower, 0.184
- B26 — lower, 0.101
- B27 — within 0.2 log units, 0.614
- B28 — lower, 0.0869
- B29 — lower, 0.0172
